# In the supplement of paper PMC3334620:
# The full ranking holds about 33,000 sequences; the median of “E-score (-0.5 to 0.5)” is about -0.016, and the highest 2% start at about 0.32. This is one part of the list.
# Target: T1, Stp1 (UniProt B3LFK1)
# T1 sequence: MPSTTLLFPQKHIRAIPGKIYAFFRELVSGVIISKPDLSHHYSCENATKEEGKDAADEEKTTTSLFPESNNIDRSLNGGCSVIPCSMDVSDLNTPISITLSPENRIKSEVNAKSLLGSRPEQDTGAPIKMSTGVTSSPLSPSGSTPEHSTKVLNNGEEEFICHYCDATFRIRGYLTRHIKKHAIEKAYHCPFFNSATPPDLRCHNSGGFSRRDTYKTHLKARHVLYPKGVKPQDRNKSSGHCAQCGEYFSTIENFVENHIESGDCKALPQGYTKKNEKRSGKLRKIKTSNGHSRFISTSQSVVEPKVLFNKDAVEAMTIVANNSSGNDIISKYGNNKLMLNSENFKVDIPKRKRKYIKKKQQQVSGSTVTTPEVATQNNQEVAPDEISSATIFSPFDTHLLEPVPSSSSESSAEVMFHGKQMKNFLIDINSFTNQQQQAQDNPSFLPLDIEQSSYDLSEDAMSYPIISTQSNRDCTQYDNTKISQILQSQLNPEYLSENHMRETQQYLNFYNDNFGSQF
# Assay: PBM E-score (8-mer binding enrichment) (E-score (-0.5 to 0.5)); higher = stronger / more preferred TF binding; most listed sequences are background and not binding sites
# Settings: protein concentration: 200 nM; construct: GST-full length
# Procedure, shortened: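 Full-length yeast transcription factors or their DNA-binding domains, GST-tagged and expressed with PURExpress, were applied at about 100-200 nM to universal all-10-mer Agilent arrays. These arrays had been made double-stranded by primer extension on fresh or once-stripped slides. Detection used fluorescent anti-GST, normalisation used masliner, and E-scores for ungapped eight-base words pooled with reverse complements came from the Universal PBM Analysis Suite.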
row,Sequence,PBM E-score
1,GAGTGACC,-0.251
2,GGATTGGA,0.0144
3,CGACTTAC,-0.132
4,AAGGGCAG,-0.0369
5,ACAGTAAA,0.105
6,AGAATCAG,0.136
7,ATGTATCA,0.0802
8,AAAATGTT,0.0842
9,GTAAATCA,0.0719
10,GCTGGACC,-0.195
11,GAGTAATC,-0.0809
12,CGAACCAC,0.247
13,AACCGATT,0.0352
14,AGTGCTCC,-0.164
15,GGGACGGA,-0.13
16,AAGTACGA,0.0928
17,TCCCACCA,-0.176
18,CGGAACAG,0.0271
19,GAAGCCGC,0.393
20,GACTGCTC,-0.287
21,CAGGCATA,0.0777
22,GATAGCAC,0.0249
23,AGAGACCC,-0.194
24,ACTCGTAT,-0.00239
25,GACCGTGC,0.0191

row,Sequence,PBM E-score
1,CCGTCTCC,0.147
2,CAGGAGCG,0.088
3,AAGGGTGA,-0.14
4,GTGAGCGA,-0.103
5,AGGCTGAA,-0.118
6,CACACTAA,0.14
7,ACTGCATA,0.00255
8,CCGCCCAG,-0.105
9,GACTGCTA,-0.226
10,ACCACAAC,0.0979
11,ATTTAGCG,0.0158
12,CCCAGACC,-0.255
13,CGAGTCCA,-0.0882
14,GAGCGAAA,0.13
15,CTGGGCTC,-0.264
16,ACTTAACT,0.0536
17,CAATGGAC,0.106
18,CTCGGGCC,-0.0148
19,CATCTAAA,0.0999
20,AAATGCCT,0.285
21,GACATGTA,0.089
22,ACTGCAAC,-0.196
23,GCCTAGCA,-0.0533
24,GCCGAAGA,0.134
25,GGGGCAAA,0.0199

row,Sequence,PBM E-score
1,CCGGTCAG,-0.247
2,ATCCGGTC,-0.235
3,GTCCATAA,-0.104
4,AATATCCT,0.0422
5,GCGCATAA,0.00857
6,ATCTCCCA,-0.118
7,ATCTTACC,-0.0908
8,GCATAGGA,0.0236
9,ATTAGGTA,0.0951
10,GTCCGCTA,-0.0918
11,GAAGTGAA,0.07
12,AGCGCCCA,-0.225
13,ACTAGGTG,-0.298
14,TGCCTAAA,0.0632
15,CAACGCTG,-0.0111
16,AGCGTTTA,-0.127
17,CGCTGCCG,0.264
18,TAACTAAA,-0.0145
19,GACGGGCC,-0.0674
20,CCGCGGCC,0.325
21,AGAATCTG,-0.00098
22,GCTAAAAA,0.121
23,CACGCATA,-0.1
24,ACGTCTTA,-0.132
25,CAGAGTAC,0.177

row,Sequence,PBM E-score
1,TCAGCCCA,-0.171
2,CATCACTC,-0.0239
3,AGTGAGCC,-0.0302
4,GATCAAAC,0.00027
5,AGTTGACG,0.0138
6,GAAGCCTA,-0.0763
7,CTTTAAAG,-0.0166
8,CATGTCAG,-0.0759
9,CTGTCACC,-0.218
10,GCTTGGCC,-0.0939
11,CTAGAATC,-0.0796
12,CGGGGCAA,-0.0113
13,ACGACTGG,-0.13
14,CCTGCCTC,-0.102
15,CCCGTACG,0.119
16,CCTTCAAC,-0.14
17,CGTTTCAC,0.164
18,ACACGAAC,0.0564
19,CACTAACA,0.0786
20,ATCGTCAT,0.0661
21,AGTAAACC,-0.191
22,CGACGTCA,-0.163
23,CAATTAAA,0.156
24,CGCTTGCC,0.0655
25,CACGGACG,0.164

row,Sequence,PBM E-score
1,TTAGAGAA,-0.248
2,CAGGATCC,-0.0149
3,AATTTCCT,-0.0217
4,AGACTATA,0.152
5,GAACCCCC,-0.372
6,AATAGTCC,-0.165
7,ATGCCTCC,-0.0159
8,CCCTCAGA,-0.22
9,GGGAGGAC,-0.15
10,ACCGAAGT,-0.0602
11,CGGACACA,0.0654
12,GCAACAAC,0.049
13,CGAAATAA,0.206
14,TCACTTCA,-0.024
15,ATGCAATA,0.04
16,CGAATTCC,0.0428
17,AGTCCCAC,-0.312
18,AAAGCTTA,0.0842
19,ACAACCAA,0.0505
20,GAGCATAC,-0.0997
21,AGCATCCT,-0.245
22,AGACATCT,-0.0861
23,GATTCCCA,-0.0824
24,AAGCGTTC,-0.222
25,ATCTCCAC,-0.0548

row,Sequence,PBM E-score
1,AATAAAAT,0.199
2,GCCTGGCA,-0.25
3,GGTGTAGA,-0.171
4,AGCACCGG,-0.188
5,ACTCGTTA,-0.159
6,AAACTAAC,0.155
7,AAGACACC,-0.0764
8,ATTAGTCC,0.128
9,ACAAATAT,0.16
10,GGAGCGTA,-0.174
11,AGACAACA,0.0979
12,TCTCTCAA,0.215
13,TCAGCGCA,-0.183
14,GGCGGTAC,0.0425
15,GATGCGCA,0.0121
16,ATGTGTGG,0.0153
17,AAGAGGAA,0.059
18,AGGTTTGA,-0.138
19,ACATATTA,0.198
20,CTGGTAAG,0.0996
21,GATCGTAA,0.0502
22,AAAAGATG,0.132
23,CAGAACCA,-0.132
24,CCGAGATC,-0.175
25,ATTACAGC,-0.0296

row,Sequence,PBM E-score
1,CGCCAGAG,-0.127
2,CTGCAAAA,0.0123
3,AACGCGAT,-0.0792
4,ATTAGAAT,-0.0124
5,ACGCATTG,0.0406
6,GACGTCGC,-0.252
7,CATGGGCC,-0.107
8,AAAACCTT,-0.0164
9,GACAAGAA,0.137
10,CAAGGTTC,-0.124
11,CCCAACTC,-0.0439
12,GTCCCGAC,-0.187
13,ACCGACGA,-0.0695
14,GTGCTGAA,-0.117
15,GGAAGTAC,0.0967
16,ATATCGGC,0.0169
17,CTATCCTC,-0.165
18,TACCAGTA,0.155
19,ATATATCC,0.285
20,CCCTTCCG,-0.179
21,AGGTAGAT,-0.14
22,ACCGCGGT,-0.3
